The full ranking holds about 33,000 sequences; the median of “E-score (-0.5 to 0.5)” is about -0.021, and the highest 2% start at about 0.32. The list shows a part of the results.
What follows are sequences tested against T1, Zap1 (UniProt P47043) (assay: PBM E-score (8-mer binding enrichment) (E-score (-0.5 to 0.5)); higher = stronger / more preferred TF binding; most listed sequences are background and not binding sites). Details: protein concentration: 200 nM; construct: GST-full length.
T1 sequence: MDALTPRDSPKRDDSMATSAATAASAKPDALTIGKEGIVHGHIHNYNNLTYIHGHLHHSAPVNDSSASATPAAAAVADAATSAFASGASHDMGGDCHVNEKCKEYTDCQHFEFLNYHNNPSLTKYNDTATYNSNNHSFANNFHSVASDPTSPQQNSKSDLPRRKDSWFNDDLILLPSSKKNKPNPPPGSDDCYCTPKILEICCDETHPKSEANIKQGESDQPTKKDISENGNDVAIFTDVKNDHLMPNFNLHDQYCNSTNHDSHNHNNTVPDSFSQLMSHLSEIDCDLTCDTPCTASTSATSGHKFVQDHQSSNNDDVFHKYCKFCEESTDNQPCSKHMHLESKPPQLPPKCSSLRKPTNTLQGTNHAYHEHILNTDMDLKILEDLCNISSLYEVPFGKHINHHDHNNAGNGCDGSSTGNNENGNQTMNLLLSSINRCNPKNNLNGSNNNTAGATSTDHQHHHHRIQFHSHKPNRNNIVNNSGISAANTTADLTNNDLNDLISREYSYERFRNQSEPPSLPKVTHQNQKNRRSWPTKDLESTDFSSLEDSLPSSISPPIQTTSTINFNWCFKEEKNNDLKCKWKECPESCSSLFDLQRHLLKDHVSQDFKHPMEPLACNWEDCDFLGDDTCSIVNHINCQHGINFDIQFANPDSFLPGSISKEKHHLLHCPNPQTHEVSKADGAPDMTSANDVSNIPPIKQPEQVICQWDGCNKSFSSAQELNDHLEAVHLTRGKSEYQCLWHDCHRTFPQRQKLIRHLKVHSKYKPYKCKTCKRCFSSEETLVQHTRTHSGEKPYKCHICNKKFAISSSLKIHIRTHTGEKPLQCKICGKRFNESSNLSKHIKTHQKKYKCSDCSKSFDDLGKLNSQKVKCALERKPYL
Method in brief: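 For each ungapped eight-base word taken together with its reverse complement, the Universal PBM Analysis Suite assigned an E-score. Binding data came from GST-tagged yeast transcription factors, applied at about 100-200 nM, on universal all-10-mer Agilent arrays made double-stranded by primer extension. Fluorescent anti-GST marked bound protein, and scans were normalised with masliner.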

Sequence	PBM E-score
AACATTCG	-0.109
AATTACCG	0.223
AGTGGATG	0.116
AACAAGAA	0.178
TACCTGAA	0.257
ACAGACCC	0.204
AAAGCCCG	-0.212
AACTATCA	0.134
GTATTACA	-0.0059
CTGCGCGC	-0.0505
CGGTGCCA	-0.276
AAAGGTGG	0.158
ACGGCCTA	0.0308
ACCTGAGC	0.0875
ACGATTAA	0.0622
ACTCAGAT	0.0449
AGATGGCA	-0.151
TCCGCGCA	-0.0155
AGCGGTCA	0.311
TCTATTCA	0.0189
CATTCGGC	-0.169
GGCTGACA	-0.177
AATACAGA	0.167
TACTTCTA	-0.00314
ACGAGAGG	-0.0582

Sequence	PBM E-score
CGTACATA	0.0382
AAGCCGAG	-0.118
GCGAATCC	-0.0914
ACCCGACT	0.13
GTTTTGTA	0.275
GACGCGAC	-0.0898
CTCCCTTC	-0.269
CTCTTGAC	-0.00413
AACGGGTC	0.151
AGCAAGAT	-0.153
CTAATCCA	-0.0467
CAGAACCG	0.111
GAACTATC	-0.165
TAGCCCAA	-0.00536
CAACAAAC	0.123
GTGCACAC	-0.159
ACACTCTG	0.0251
ACTCTGCG	-0.0257
CCGCCACC	0.017
ATAGCGCG	0.0047
GCTTCTCC	-0.378
CTGGTACC	0.286
TTCGCCAA	-0.133
CATCGGCG	-0.248
ACAGTGAC	0.088

Sequence	PBM E-score
CGTCAATA	0.0585
ATGCGGAC	-0.126
GGTACCAC	0.362
ATTTGGCG	-0.00681
AGACTCGA	-0.108
CTCTGGAC	0.11
CTCGGCTA	-0.211
GCATAAGA	0.0335
ATAGTACC	0.146
ATTGCCAG	-0.0236
AATACCAC	0.0878
AAATTTTG	-0.0366
ACTGTCCT	-0.0589
AATTTCGG	0.0226
AAGTCAGC	-0.081
AGCACTGC	-0.345
GCGCTAGA	-0.113
TAACTCTA	0.0222
CAGAACAC	-0.00853
TGGCTTAA	-0.0302
AAGGTTCA	0.054
TCGCTAGA	-0.0403
AAGAGTAT	-0.126
AGCACAGC	-0.105
TTGGCCAA	-0.34

Sequence	PBM E-score
AGGCCGAC	-0.0767
CAAATCCC	-0.127
CTGTCCGA	0.0685
CATATCCA	-0.0473
CACAAGAC	-0.0866
AACAGGCT	-0.274
ATGGATCA	-0.0007
AAGCCTGG	-0.149
CCTGTGGC	-0.108
AGTTTTAA	0.19
AGGCTACG	-0.18
ACCGAACG	0.0729
GCGCGAAA	0.108
GTAAAAAC	0.133
GCTCGGAA	0.00496
GCTCCCTA	-0.279
CCTAAACG	0.0765
AGCTGTGG	-0.196
GACTTCGC	0.111
CTGTTTGA	0.0708
CGCTGTTC	-0.112
AATGTAGG	0.0567
AGTCCCTG	-0.154
CCCTAGAC	-0.0103
AGCGGGTG	0.0727

Sequence	PBM E-score
GCAAGGGA	-0.216
ATATTATC	-0.0253
ACCTTCAC	0.243
GATTACAC	0.123
AGTCGCTA	-0.0231
CATAGCCA	-0.0377
CTAGGCCC	-0.291
GTGGGACA	-0.0823
CAAGTCCC	-0.135
CACTGAAA	0.109
GACCGTAC	-0.11
ATCCTATA	0.0245
ATGTCCAC	0.00035
CGATAATC	-0.0951
ACGTCACC	0.0378
AAATCAAC	0.0373
CTCGCTCC	-0.122
ACACCAGG	-0.0659
AGGTATTC	0.116
AATACGCA	-0.0665
ACGCGGGC	-0.215
AGCGAGCA	-0.159
GTCGCCTA	-0.0377
CCACGGAC	-0.0588
CGAGCCAA	-0.189

Sequence	PBM E-score
ATATACTA	0.159
CAGAGCGG	-0.198
AGTTGTTG	0.0292
CCTGCCTA	-0.186
CCCGTGTA	-0.149
AAGAAACG	0.0819
TCAGTCGA	-0.0139
CCTGAGAA	0.0612
GGATCCGA	-0.319
GGCTACCC	0.132
GACATGTC	-0.275
GTTATGCA	0.155
ATTATCTA	0.013
ACCCGGAC	0.137
AAAAAACA	0.247
GAAGGCGA	-0.269
ATCATACC	0.243
CGTAACTA	0.0577
AAAAGAGC	-0.026
AGTATATC	-0.106
ATCGACAT	0.00312
CGGTTTTC	0.139
ATGTAGGA	0.0775
CGTTCGGC	-0.27
GCTGCACC	-0.15

Sequence	PBM E-score
CGCATTAC	0.0167
AGAGCTTA	0.0111
ATCTCATA	0.00164
CTACCATC	-0.00011
GAGGCCGC	-0.0103
CCCGGAAC	0.0109
AACTGTAA	0.285
CGGGCTTA	-0.183
ACCTCATC	0.127
CGGACCCG	0.228
CGTCGGCC	-0.0989
ATGACAAG	-0.0631
GAGCCTTA	-0.248
GACTTGGC	-0.164
GTACGTAC	-0.274
GTCATTCA	0.17
GCAAAACA	0.0837
AATACTAT	-0.0176
ACCCGTAA	0.333
CGCGGGGA	0.142
CCCTCGAC	-0.151
AAGATATA	0.0198
CCTGTGTA	0.137
CTGCAACA	0.101
ATCTATCA	0.11

Sequence	PBM E-score
AGAGATAC	0.125
CCAAGAGG	0.0456
AGAGCAAA	-0.0548
CAGGAGAG	-0.183
AGGGTGTC	0.304
CAAGACCA	-0.00438
AAGGAGGC	-0.186
ATAGAATA	0.0849
GTCTGCTA	-0.0556
CCCCCTCG	-0.135
CATGACGC	-0.108
ACTTCTGC	-0.0871
ATTATGGG	-0.012
CTCAGAAA	0.137
ACTTGTTG	-0.101
CTTACCCC	-0.0439
AGTACGCA	-0.141
AAGAGACG	-0.107
CAGACTAA	-0.0449
ACCAATAT	0.165
AAGGAGTG	-0.181
ATGTACCG	0.0596
CGGCTCTA	-0.123
AACAGCAA	-0.0172
ACCTCGCA	0.191

Sequence	PBM E-score
CGCCAAGC	-0.168
ACACACGC	-0.0158
AACCGTGA	0.0669
GAGACCTC	0.0168
CACGGTGA	-0.103
CTCGGCGC	-0.018
ACGCAATG	-0.0468
CGGCCATA	0.0456
ATAGCACC	0.045
CGCCATAG	-0.168
ATGTAAAG	0.123
AGGTCTTA	0.172
CAGAGTCG	-0.169
CAGCATAG	-0.164
GTCATAAC	0.315
CATTTAAA	0.167
CCACCGGG	0.151
AGGCCAGA	-0.12
CCGGTTTA	0.0867
